Source: PubChem BioAssay AID686979 (National Center for Advancing Translational Sciences (NCATS), 2013)
The whole screen tested about 420,000 compounds, of which about 50,000 (12%) were called active. Inconclusive means that the source gave no clear call. Such entries were picked first, then a sample of the others. The call rests on the fitted dose curve; in most records, active means well fitted inhibition curve with a large enough effect; inconclusive means small, poorly fitted or top-dose-only effect; inactive means flat fitted curve, though single readings scatter. Potencies of inconclusive entries are left out as doubtful fits.

assay: qHTS for Inhibitors of human tyrosyl-DNA phosphodiesterase 1 (TDP1): qHTS in cells in presence of CPT; settings: chicken DT40 Tdp1-/-;hTDP1 cells + 20 nM CPT, ATP luminescence, 48 h; activity change, negative = growth inhibition: at 46.2 µM (top of the series) unless noted; further: nearly all actives have a fitted effect of over 55% in size
Procedure, shortened: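 Chicken DT40 Tdp1-/- cells complemented with human TDP1, 400 cells/well, exposed to compounds plus 20 nM camptothecin for at least 48 h at 37 C; viability read as ATP content by CellTiter-Glo luminescence.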
On the % scale 0 is the no-effect control and ±100 the full control effect; potency means the concentration at half of the fitted maximal effect; tags describe the fitted curve by direction and shape.

SMILES | Potency | activity change, negative = growth inhibition
O=S(=O)(c1cccc(-c2nnc(SC(F)F)n2-c2ccccc2)c1)N1CCCCC1 | inconclusive [inhibitor, single point] | 
COC(=O)c1ccccc1SC1CC(=O)N(c2ccccc2)C1=O (configuration not stated) | inconclusive [inhibitor, partial curve] | 
O=C1CC(N2CCN(c3ccccn3)CC2)C(=O)N1CC(c1ccccc1)c1ccccc1 (configuration not stated) | active: 23.1 µM | 
Cc1ccc(CN2C(=O)C(O)(CC(=O)c3ccc(C)cc3)c3ccccc32)cc1 (configuration not stated) | active: 5.8 µM | 
O=c1c2c3c(sc2nc2n1N=C(c1cccs1)CS2)CCCC3 | inconclusive [inhibitor, partial curve] | 
CCOc1ccc(S(=O)(=O)N2CCCCC2)cc1NC(=O)c1c(CC)noc1C |  | inactive: -22.7%
CC(C)n1nnnc1SCC(=O)N1N=C(c2cccs2)CC1c1cccs1 (configuration not stated) |  | inactive: -20.3%
O=C(OCc1nc2ccsc2c(=O)[nH]1)c1ccccc1 |  | inconclusive: -31.7% [inhibitor]
O=C(/C=C/c1ccc2c(c1)OCCCO2)c1ccccc1O | inconclusive [inhibitor, single point] | 
COc1cc(C(=O)NCCCN2CCCC2=O)cc(Br)c1OCc1ccccc1 | inconclusive [inhibitor, partial curve, poor fit] | 
O=C(/C=C/c1ccc(Cl)cc1)NC(=S)Nc1ccc(C(=O)O)cc1 | inconclusive [inhibitor, single point] | 
NNC(=O)c1cnn(-c2ccccc2)c1-n1cccc1 |  | inactive: 3.5%
Cn1cnnc1SCC(=O)c1cc2ccccc2oc1=O |  | inactive: -22.5%
CC[C@@]1(c2ccccc2C)C(=O)N(C(=O)OC)N1C(=O)OC | active: 13 µM | 
CN(C)c1ccc(C=Nc2ccccc2C(N)=O)cc1 | inconclusive [inhibitor, single point] | 
Cc1ccc(S(=O)(=O)NCc2cn3c(C)csc3n2)cc1 |  | inactive: -5.39%
O=C(c1n[nH]c2ccccc12)N1CCN(S(=O)(=O)c2ccccc2)CC1 | inconclusive [inhibitor, full curve, poor fit] | 
O=C(NCCc1ccc(Cl)cc1)c1n[nH]c2ccccc12 |  | inconclusive: -36.1% [inhibitor]
CCOc1ccc(C(=O)N(CC(=O)Nc2cccc(C)c2C)CC2CCCO2)cc1OC (configuration not stated) | inconclusive [inhibitor, single point] | 
COc1ccc(C(=O)NCC(=O)N2CCC(Cc3ccccc3)CC2)cc1OC | inconclusive [inhibitor, single point] | 
CC(C)=CCC/C(C)=C/CNC(=O)CC1C[C@H](C(=O)N(C(C)C)C(C)C)[C@@]2(C)c3[nH]c4ccccc4c3CCN2C1=O (some centres not stated) | active: 16.4 µM | 
O=C(NC1CCN(Cc2ccccc2)CC1)C1CCCN(S(=O)(=O)c2cccc3nonc23)C1 (configuration not stated) | inconclusive [inhibitor, single point] | 
Cc1nc(-n2nnc3cc(C)c(C)cc32)c2c3c(sc2n1)CCCC3 | inconclusive [inhibitor, single point] | 
COc1ccc(C(=O)/C=C2\NCCc3cc(OC)c(OC)cc32)cc1OC | active: 16.4 µM | 

SMILES | Potency | activity change, negative = growth inhibition
Cc1onc(-c2ccccc2Cl)c1-c1nc(-c2ccncc2)no1 | inconclusive [inhibitor, single point] | 
COc1ccc(NC(=S)NC(=O)/C=C/c2cccs2)cc1 | inconclusive [inhibitor, single point] | 
O=C(Nc1ccc(Br)cc1)c1cc2nc(-c3ccccc3)cc(-c3ccccc3)n2n1 | inconclusive [inhibitor, single point] | 
Cc1cc2oc(C(=O)NC3CCS(=O)(=O)C3)c(C)c2cc1C (configuration not stated) |  | inactive: -16.8%
CCC(C)NC(=O)CSc1n[nH]c(-c2cc(Cl)ccc2OC)n1 (configuration not stated) |  | inactive: -8.25%
COc1ccc(C(=O)NCC(C)NC(=O)c2ccc(OC)c(OC)c2)cc1OC (configuration not stated) |  | inactive: 0.716%
CCc1ccc(C(=O)COC(=O)c2cc([N+](=O)[O-])ccc2N2CCOCC2)cc1 | inconclusive [inhibitor, single point] | 
COc1ccccc1C(=O)NC(=O)CSc1nncn1C(C)C |  | inactive: -1.92%
Fc1ccccc1Cn1cc(C(=S)N2CCOCC2)c2ccccc21 | inconclusive [inhibitor, single point] | 
CN(C)CCNC(=O)C1Cc2c(-c3ccccc3Oc3ccccc3)ccnc2O1 (configuration not stated) | active: 29.1 µM | 
FC(F)Sc1ccc(N=C2NN=C(c3ccc4c(c3)OCCO4)CS2)cc1 | active: 18.4 µM | 
COC(=O)/C=C/c1ccc2c(c1)S(=O)(=O)N(C1CCCC1)[C@H]2CC(=O)OC | active: 0.631 µM | 
Cc1ccc(NC(=O)c2cc(S(=O)(=O)NC3CCCCCC3)ccc2F)cc1F | inconclusive [inhibitor, single point] | 
CC[n+]1c(/C=C/C=C/N(C(C)=O)c2ccccc2)sc2cc(OC)ccc21 | active: 3.26 µM | 
COc1ccc(CCNc2oc(-c3ccc(C)cc3)nc2C#N)cc1OC | inconclusive [inhibitor, single point] | 
CCn1c(C)c(C(C)=O)c(N2CCN(c3ccc(OC)cc3)CC2)nc1=S | inconclusive [inhibitor, partial curve] | 
Cc1oc2ccc(OC(=O)COc3c(F)c(F)c(F)c(F)c3F)cc2c1C(=O)OC(C)C | inconclusive [inhibitor, partial curve] | 
Cc1cc(C)c2c(N)c(C(=O)Nc3cccc(C)c3C)sc2n1 | inconclusive [inhibitor, single point] | 
CCn1cc(CCCC(=O)NCc2cccc(OC)c2)c2ccccc21 | inconclusive [inhibitor, single point] | 
CC1=C(C)N(C)[C@H](c2ccccc2Br)[C@H](O)C1=O |  | inactive: -3.61%
COc1ccc(-n2ccc(-c3nn(-c4cccc(C(F)(F)F)c4)ccc3=O)n2)cc1 | inconclusive [inhibitor, single point] | 
CCOc1ccc(/C=N/Nc2ccccc2)cc1 | inconclusive [inhibitor, single point] | 
O=C(Nc1ccccn1)c1cc(-c2cccnc2)nc2ccc(Br)cc12 | inconclusive [inhibitor, partial curve] | 
COc1ccc(CNC(=O)CN(Cc2ccc(F)cc2)C(=O)CCC(=O)Nc2nccs2)cc1 | inconclusive [inhibitor, single point] | 

SMILES | Potency | activity change, negative = growth inhibition
Cc1cc(C(=O)N(NC(=O)C(C)C)c2ccccc2)cs1 |  | inactive: -14.1%
COc1cccc(CNC(=O)CCNS(=O)(=O)c2ccc(C)cc2)c1 |  | inactive: -17.3%
CC(=O)Nc1ccc(Sc2ccccc2C(=O)Nc2ccc(F)cc2)cn1 | inconclusive [inhibitor, single point] | 
CCOc1ccc(C(=O)NC(=S)Nc2ccc(N3CCOCC3)c(Cl)c2)cc1[N+](=O)[O-] | active: 0.146 µM | 
C=C1C(=O)C=C[C@]2(C)C[C@@H]3OC(=O)[C@](C)(O)[C@H]3C[C@@H]12 | active: 1.84 µM | 
CC(C)(C)N(Cc1ccccc1)C(=O)COC(=O)c1ccc(S(=O)(=O)N2CCOCC2)cc1 | inconclusive [inhibitor, single point] | 
O=C(NCCN1CCN(c2ccccc2)CC1)c1cccc(Cl)c1 | inconclusive [inhibitor, full curve, poor fit] | 
COc1ccc(-c2ccc3c(N)c(C(=O)Nc4cccc(C)c4)sc3n2)cc1 | active: 16.4 µM | 
Cc1nc2sc(C(=O)Nc3ccccc3)c(N)c2c(C)c1[N+](=O)[O-] | inconclusive [inhibitor, partial curve, poor fit] | 
CN(c1cccc(NC(=O)CN(c2ccc(F)cc2)S(C)(=O)=O)c1)S(C)(=O)=O |  | inactive: 1.14%
O=S(=O)(c1cccc(-c2cn3cc(Cl)ccc3n2)c1)N1CCOCC1 | inconclusive [inhibitor, single point] | 
CC1=C(C(=O)NCc2ccc(Cl)cc2)C2(CCCCCC2)OC1=O | inconclusive [inhibitor, single point] | 
O=C(NCC1CCCO1)c1csc(Nc2cccc3ccccc23)n1 (configuration not stated) | active: 18.4 µM | 
COc1ccccc1C(=O)NC(=O)Nc1ccc(-n2nc(C(F)(F)F)cc2C(F)(F)F)cc1 | inconclusive [inhibitor, single point] | 
O=c1c(-c2ccc(F)c(F)c2)nc2cncnc2n1Cc1ccc(F)cc1 | active: 14.6 µM | 
O=C(NCc1ccc(F)cc1)OC1CC2CC1[C@H]1CCCCN1C2=O (some centres not stated) |  | inactive: -8.92%
CCN(CC)C(=O)C(=O)N/N=C/c1ccc(C(=O)OC)cc1 |  | inactive: -4.62%
O=C(O)CC(Cc1ccccc1)C(=O)NCC12CC3CC(CC(C3)C1)C2 (configuration not stated) |  | inactive: -10%
Nc1c(Cl)ncnc1Nc1ccc(C(=O)O)cc1 |  | inactive: -3.25%
COc1ccccc1Nc1nc(N)nc(CSC(=S)N2CCN(c3ccccc3)CC2)n1 | inconclusive [inhibitor, single point] | 
COc1ccc(C2(O)CC3CCC(C2)N3c2cc(C)nc(-c3ccccc3)n2)cc1 (configuration not stated) | inconclusive [inhibitor, single point] | 
COc1cccc(CNC(=O)Cn2c(=O)oc3cc(S(=O)(=O)N4CCCCC4)ccc32)c1 | inconclusive [inhibitor, single point] | 
CCC(C)NC(=O)c1cc(OC)c(OC)c(OC)c1 (configuration not stated) |  | inactive: -10.4%
Cc1ccc(C)c(N(CC(=O)NC2CCCCC2)C(=O)c2csnn2)c1 |  | inactive: 4.53%
